Laboratory results as given in PubChem BioAssay AID485344 (National Center for Advancing Translational Sciences (NCATS), 2010).
About 6,900 (2%) of roughly 340,000 compounds were called active. Rule as the data show it: active = inhibition above about 30%; inactive = below that, where a call was filed. This is a selection; strong and weak results do not stand in their true shares. Where no call is shown, the source filed none.

molecular target: D(2) dopamine receptor (Homo sapiens) (UniProt P14416); experiment: HTS Assay for Allosteric Antagonists of the Human D2 Dopamine Receptor: Primary Screen for Antagonists; details: HEK293 TREx D2 cells, calcium flux, dopamine EC80; at 10 µM; stronger effect = higher value; also: 0% is about no effect
Method in brief: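 Compounds are added to dye-loaded, induced HEK293 T-REx cells coupled to calcium release via D2; after a 3 min kinetic read an EC80 dopamine stimulus is given and fluorescence is recorded for 3 more min.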

Sequence of UniProt P14416 (P14416 whole entry, looked up): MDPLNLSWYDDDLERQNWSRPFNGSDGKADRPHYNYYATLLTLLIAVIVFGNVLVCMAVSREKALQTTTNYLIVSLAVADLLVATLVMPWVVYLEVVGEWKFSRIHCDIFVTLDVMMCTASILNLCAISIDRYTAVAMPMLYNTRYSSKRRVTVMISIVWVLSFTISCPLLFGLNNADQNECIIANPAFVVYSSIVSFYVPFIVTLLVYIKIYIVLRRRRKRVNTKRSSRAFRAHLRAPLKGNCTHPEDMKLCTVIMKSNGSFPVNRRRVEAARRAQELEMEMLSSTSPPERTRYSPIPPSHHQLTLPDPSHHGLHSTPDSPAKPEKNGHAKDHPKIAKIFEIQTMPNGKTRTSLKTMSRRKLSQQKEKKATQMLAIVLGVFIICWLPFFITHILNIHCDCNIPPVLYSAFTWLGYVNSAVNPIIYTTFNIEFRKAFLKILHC

Structure (SMILES) | inhibition
COC(=O)c1ccccc1NC(=O)CN1C(=O)COc2ccccc21 | 8.97%
Cc1ncc(CO)c2c1Oc1nc(-c3ccccc3F)nc(SCC(=O)N3CCCCC3)c1C2 | -17.6%
COCc1ccc(-c2c(-c3ccccc3OC)sc3cc4c(cc23)OCO4)cc1 | active: 39.9%
COc1ccc(NC(=O)CSc2nc3c(c(=O)[nH]2)CN(Cc2ccccc2)CC3)cc1Cl | 11.4%
CCc1nc2ccc(C(=O)NCCCN3CCN(c4ccccc4F)CC3)cc2nc1CC | active: 88.4%
CCS(=O)(=O)c1ncc(Cl)c(C(=O)N(Cc2ccccc2)Cc2ccco2)n1 | 0.401%
COc1ccccc1-c1noc(-c2ccc(NCCc3ccccc3)c([N+](=O)[O-])c2)n1 | -1.74%
CCn1cc(C(=O)NCCc2ccc(OC)c(OC)c2)c(=O)c2cc(S(=O)(=O)N3CCc4ccccc4C3)ccc21 | -12.4%
COc1cccc(CNC(=O)CSc2ncc(S(=O)(=O)c3ccc(C)c(Cl)c3)c(=O)[nH]2)c1 | 13.1%
CC(C)(C)C(=O)OCc1cc(=O)n2nc(C3CCCCC3)sc2n1 | -5.98%
COc1ccc(-c2nc(CN3CCC(C(=O)NCCN(CC(C)C)CC(C)C)CC3)c(C)o2)cc1OC | -14.9%
Cc1ccc(C)c(CN2C(=O)c3ccccc3Sc3ccc(C(=O)NC4CCCC4)cc32)c1 | -18.6%
Cc1ccc(-n2ncc(C(=O)N3CCc4ccccc4C3)c2C2CCN(C(=O)OC(C)(C)C)CC2)cc1C | 0.396%
COc1ccc(NC(=O)c2c(C)oc3ccc(O)c(CN4CCCC(C)C4)c23)cc1Cl (stereo not given) | 7.36%
Cc1ccc(N2CCN(C(=O)CCc3c(C)nc4ncnn4c3C)CC2)c(C)c1 | 8.53%
Cc1cc(C)c(C#N)c(SCC(=O)Nc2ccccc2C#N)n1 | -0.114%
COC(=O)c1c(NC(=O)c2ccc(S(=O)(=O)N3CCCCC3)cc2)sc2c1CCN(C)C2 | -1.92%
COc1ccc(CCNC(=O)CCCn2c(=O)c3ccccc3n(CC(=O)Nc3c(C)cc(C)cc3C)c2=O)cc1OC | 20.5%
CCc1ccc(NC(=O)CCS(=O)(=O)c2ccc3c(c2)oc(=O)n3C)cc1 | -4.18%
CCOC(=O)c1c(-c2ccc(C)cc2)csc1NC(=O)c1ccc(C(C)(C)C)cc1 | 10.4%
COC(=O)c1ccc(OC)c(Cn2c(=O)n(-c3cccc(Cl)c3)c(=O)c3c2c2cc(C)ccc2n3C)c1 | 0.168%
Cc1ccc(-n2c(SCc3nc(-c4ccccc4C)no3)nnc2-c2ccncc2)cc1C | 17.4%
Cc1ccc(N2CC(c3nnc(Cc4ccc(F)cc4Cl)o3)CC2=O)cc1 (stereo not given) | 11.7%
COC(=O)CNC(c1ccccc1)c1cc(Br)ccc1NC(=O)c1cc(OC)c(OC)c(OC)c1 (stereo not given) | -7.87%

Structure (SMILES) | inhibition
CC1=C(c2ccc(Cl)cc2)S(=O)(=O)N=C1N1CCN(c2cccc(C)c2)C(C)C1 (stereo not given) | -11.1%
CNC(=O)c1ccc(NC(=O)c2nsc3ccccc23)cc1 | 11%
CCOC(=O)c1ccc(NC(=O)Cn2nnc(-c3ccc(C(F)(F)F)cc3)n2)cc1 | 3.39%
Cc1ccc(-c2csc(=Nc3ccccc3)n2CCCO)cc1 | 6.73%
CCN1Cc2cccc(C(=O)Nc3ccc(F)cc3)c2C1=O | 10.1%
COc1ccc2c(c1)c(N1CCCC1=O)c(C(=O)Nc1ccc(Cl)cc1C)n2C | 3.13%
CCOC(=O)c1ccc(OCC2c3cc(OC)c(OC)cc3CCN2C(=O)Cc2ccc(OC)c(OC)c2)cc1 (stereo not given) | 19%
COc1ccc(-c2[nH]c(-c3ccc(F)cc3)nc2SCC(=O)Nc2ccc(OC)c(OC)c2)cc1 | 7.23%
Fc1ccc(-n2ncc3c(Nc4ccc(Oc5ccc(Cl)cc5)cc4)ncnc32)cc1 | 12.8%
CC1=C(C(N)=O)C(c2ccc(C(C)C)cc2)n2nc(SCc3ccccc3F)nc2N1 (stereo not given) | -25.7%
CCn1cc2nc(SCc3cccc(C(F)(F)F)c3)n(CCc3ccccc3)c(=O)c2n1 | -0.419%
COc1ccc(F)cc1C(=O)C1CCCN(Cc2ccc(Sc3nncn3C)o2)C1 (stereo not given) | active: 30.9%
COc1ccc(-c2cc(C)no2)cc1S(=O)(=O)Nc1cccc(C(F)(F)F)c1 | 14.1%
COc1ccc(CCNC(=O)Cn2c(C)c3cnn(-c4ccccc4)c(=O)c3c2C)cc1OC | 10.5%
Cc1cc(-c2nc3ncccc3o2)ccc1NC(=O)COc1ccc(C(C)(C)C)cc1 | 13.6%
CCOc1ccc(Nc2c(S(=O)(=O)c3ccc(C)cc3)cnc3ccccc23)cc1 | -0.954%
Cc1c2cnn(-c3ccccc3)c(=O)c2c(C)n1CC(=O)NCc1ccc(Cl)cc1 | -6.49%
CCc1ccc(NC(=O)CSc2nnc(-c3nonc3NC(C)=O)n2-c2ccccc2)cc1 | 5.67%
COc1ccccc1COC(=O)c1cccc(S(=O)(=O)N2CCCC2)c1 | active: 41.7%
Cc1cc2oc(C(=O)N(Cc3ccccc3)C3CCS(=O)(=O)C3)cc(=O)c2cc1C (stereo not given) | 5.58%
CCOc1ccc(S(=O)(=O)n2nc(C)c(S(=O)(=O)N3CCCCCC3)c2C)cc1 | -1.57%
Cc1ccc(-n2ncc3c(NCCc4ccccc4)ncnc32)cc1 | -0.574%
Cc1ccccc1C(=O)Nc1ccccc1C(=O)OCc1cc(=O)n2nc(C3CC3)sc2n1 | 3.54%
Cc1ccc(NC(=O)CN2C(=O)C(c3ccccc3)=NC2(C)C)cc1C | -15.1%

Structure (SMILES) | inhibition
COc1cccc(C(=O)Nc2ccc3c(c2)CCCN3C(=O)c2cccs2)c1OC | 6.83%
CCc1ccc(-n2c(=O)c3cccnc3n2CC(=O)N(CC)c2cccc(C)c2)cc1 | -3.67%
Cc1cc(NC(=O)c2ccc3c(c2)C(=O)N(C2CCCCC2)C3=O)no1 | active: 55.5%
COc1ccc2oc(-c3ccc(C)c(NC(=O)c4ccc(N5CCCCC5)c([N+](=O)[O-])c4)c3)nc2c1 | 0.421%
O=C(NCc1nc(-c2ccc(Cl)cc2)no1)c1ccco1 | active: 34.1%
CC(C)(C)OC(=O)N1CCC(c2c(C(=O)NCCN3CCOCC3)cnn2-c2ccccc2)CC1 | -4.02%
CCN(CC)C(=O)Cn1c(SCC(=O)Nc2ccc(C)c(C)c2)nc2ccccc21 | -1.5%
COc1ccc(CNC(=O)CN2CCSc3ccccc32)c(OC)c1 | -5.31%
CCS(=O)(=O)N1CCC(C(=O)NCCCN2CCN(c3ccccc3F)CC2)CC1 | active: 86.4%
CCN(c1ccccc1)S(=O)(=O)c1cc(C(=O)Nc2ccc(Br)cc2)ccc1F | 9.95%
O=C(Cn1c(=O)oc2ccccc21)NCc1ccc(Cl)cc1 | 10.1%
CCOC(=O)c1c(Nc2ccccc2)nnc(-c2ccccc2)c1-c1ccccc1 | -10.8%
CCCNC(=O)CS(=O)(=O)Cc1nc(-c2ccccc2C)oc1C | active: 39.5%
COc1cccc(Cn2c(SCc3ccc(C(=O)N4CCC(C)CC4)cc3)nc3ccncc32)c1 | 7.97%
CCC(Cc1ccccc1)NC(=O)c1csc2c1CCCCC2 (stereo not given) | -4.66%
Cc1cccc(C)c1OCC(O)CN1CCN(c2ccccc2)CC1 (stereo not given) | active: 86.9%
COc1ccc2c(C)cc(SCC(=O)Nc3nsc(-c4ccc(C(C)(C)C)cc4)n3)nc2c1 | -10.9%
COc1cc(NC(=O)CCCSc2nc(-c3ccco3)cc(C(F)(F)F)n2)cc(OC)c1OC | 9.88%
COc1cccc(Cn2c(=O)cc(C)c3c(C)nn(-c4ccc(C)cc4)c32)c1 | 2.96%
CCOc1ccc(NC(=O)CN2CCN(C3CCCCC3)C(=O)C2=O)cc1 | -16.6%
Cc1c(-c2cccc(NC(=O)Nc3ccccc3)c2)nc2ncccn12 | 21.3%
Cc1ccc(S(=O)(=O)N(C)/N=C/c2ccc(C(=O)O)cc2)cc1 | active: 30.3%
Cc1ccc(-c2cc(-c3coc4ccccc4c3=O)c3c(n2)-c2ccccc2OC3)cc1 | -9.26%
Cc1ccc(S(=O)(=O)N2CCc3cc(C(=O)NCCc4ccccc4)ccc32)cc1 | 6.81%

Structure (SMILES) | inhibition
Cc1cc(-c2ccc(S(=O)(=O)NCc3ccccc3Cl)s2)on1 | 1.3%
CCS(=O)(=O)N1CCC2(CC1)OC(=O)C(C)=C2C(=O)NCc1ccccc1C | -0.374%
CCCCn1c(=O)c2oc3ccccc3c2n(Cc2cccc(C)c2)c1=O | 5.43%
COc1cc2oc(=O)c(CC(=O)NCc3ccc(OC)c(OC)c3)c(C)c2cc1Cl | -7.65%
Cc1ccc(-c2noc(-c3ccc(N4CCCCC4C)c([N+](=O)[O-])c3)n2)cc1 (stereo not given) | -13.9%
COc1ccc(C(C)(C)C)cc1NC(=O)COC(=O)CSCc1c(C)noc1C | active: 36.2%
Cc1c(C(=O)Nc2ccc(-c3nc4cc(Cl)ccc4o3)cc2)oc2ccccc12 | 12.5%
Cc1ccccc1NC(=O)CSc1cn(CC(=O)N2CCCC2)c2ccccc12 | 5.9%
COc1ccc(N(C)C(=O)c2nc(-c3cccc(F)c3)n3c2CCCCC3)c(OC)c1 | 14.9%
Cc1c(Cl)cccc1NC(=O)c1cc2sccc2n1Cc1ccc(F)cc1 | 12.6%
Cc1oc(-c2cccc(C(F)(F)F)c2)nc1CN1CCC[C@H]1CO | active: 70.3%
COc1cccc(CNC(=O)CCn2c(=O)c3cccn3c3cccnc32)c1OC | 1.07%
CCOC(=O)c1ccccc1NC(=O)c1ccc2c(Cl)c3c(nc2c1)CCC3 | 5.23%
CCOc1ccc(-c2nc(N)ncc2-c2ccccc2OC)c(O)c1 | active: 34.9%
CCOc1ccc(CNC(=O)C2CCN(S(=O)(=O)c3ccc4c(ccn4C)c3)CC2)cc1 | 7.77%
Cc1nn(CC(=O)NCC(C)c2ccccc2)c(=O)c2cc3ccccc3n12 (stereo not given) | 0.365%
CCOc1ccc(C(=O)Nc2onc3c2CCCC3)cc1 | -7.84%
O=C(COc1ccccc1)Nc1ccc2nc(SCC(=O)N3CCc4ccccc43)sc2c1 | 4.07%
N#Cc1ccccc1Cn1c(SCC(=O)Nc2ccc(F)cc2)nc2ccccc21 | 8.52%
Clc1cccc(N2CCN(c3c4c(nc5nncn35)CCC4)CC2)c1 | 4.34%
Cn1cnc(S(=O)(=O)N2CCC(C(=O)Nc3ccc(C#N)cc3)CC2)c1 | 6.65%
COc1ccc2nc(N=NC3=C(O)CC(C)(C)CC3=O)sc2c1 | active: 33.7%
CC(=O)c1ccc(NC(=O)c2nc(-c3ccccc3)n(-c3ccccc3Cl)n2)cc1 | 3.08%
